# Source: PubChem BioAssay (Tox21)
# Values joined by “and” are separate entries in the source; they are usually repeats but may differ in a detail not shown here. Equal entries are not always repeated. Inconclusive means that the source gave no clear call. Such entries were picked first, then a sample of the others. For some of these results: Where the call is inconclusive, the potency comes from a doubtful curve fit. Some structures have more than one record in an assay (separate samples or runs), and their calls can disagree. Active and inactive are the calls of the source. Unless noted, the call rests on the fitted dose curve; in most records, active means well fitted curve in the direction sought with a large enough effect in the repeat runs; inconclusive means weak or mixed curves; inactive means no such curve, though single readings can be large; an effect the other way counts as inactive or inconclusive.
# Assays:
# [1] = qHTS assay to identify small molecule that activate the aryl hydrocarbon receptor (AhR) signaling pathway - cell viability counter screen (AID 743086); further: potency means the concentration at half of the fitted maximal effect; nearly all actives have a fitted effect of over 45% in size
# In short: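 HepG2-AhR-luc (HG2L7.5c1) cells, 4000/well, treated 24 h at 37 C with compound; viability measured as CellTiter-Fluor fluorescence after 30 min in the same wells as the luciferase read.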
# [2] = molecular target: Peroxisome proliferator-activated receptor gamma (Homo sapiens) (UniProt P37231); test: qHTS assay to identify small molecule agonists of the peroxisome proliferator-activated receptor gamma (PPARg) signaling pathway (AID 743094; active means well fitted activation curve with a large enough effect in the signal ratio in the repeat runs, not every such curve was filed as active; inconclusive means weak or mixed curves, or effect the other way; inactive means no such curve, though single readings can be large or run the other way; the % refers to the signal ratio; further: potency means the concentration at half of the fitted maximal effect; on activation: on the % scale 0 is the no-effect control and ±100 the full control effect); conditions: HEK293H PPARg-UAS-bla, beta-lactamase FRET ratio, 17 h; activation: at 57 µM (top of the series) unless noted
# In short: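 Quantitative HTS agonist mode: stable HEK293H line with UAS-beta-lactamase reporter under PPARg control, 17 h compound exposure at 37C, fluorescence after 1 h FRET substrate loading at room temperature.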
# [3] = molecular target: Peroxisome proliferator-activated receptor gamma (Homo sapiens) (UniProt P37231); test: qHTS assay to identify small molecule antagonists of the peroxisome proliferator-activated receptor gamma (PPARg) signaling pathway (AID 743191; calls by dose curve; further: potency means the concentration at half of the fitted maximal effect; nearly all actives have a fitted effect of over 30% in size); conditions: HEK293H PPARg-UAS-bla, beta-lactamase ratio, antagonist, 17 h; ratio activity, negative = inhibition: at 62.6 µM (top of the series) unless noted
# In short: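 GeneBLAzer PPARg UAS-bla HEK293H cells, 5 h post-plating, exposed to compounds 17 h at 37C. LiveBLAzer B/G FRET substrate added for 1 h at room temperature; beta-lactamase reporter read by fluorescence intensity.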
# [4] = qHTS assay to identify small molecule antagonists of the peroxisome proliferator-activated receptor gamma (PPARg) signaling pathway - cell viability counter screen (AID 743194); conditions: PPARg-bla HEK293H viability, CellTiter-Glo luminescence, 17 h, co-treated with 50 nM rosiglitazone; activity change, negative = cytotoxicity: at 62.6 µM (top of the series); further: potency means the concentration at half of the fitted maximal effect; nearly all actives have a fitted effect of over 55% in size
# In short: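 Cytotoxicity counter screen in PPARg-bla HEK293H cells, same wells as reporter assay. Compounds plus 50 nM rosiglitazone (final) for 17 h at 37 C, then viability read by CellTiter-Glo luminescence.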
# [5] = qHTS assay for small molecule agonists of the antioxidant response element (ARE) signaling pathway (AID 743202; active means well fitted activation curve with a large enough effect in the signal ratio in the repeat runs, not every such curve was filed as active; inconclusive means weak or mixed curves, or effect the other way; inactive means no such curve, though single readings can be large or run the other way; the % refers to the signal ratio; further: potency means the concentration at half of the fitted maximal effect); conditions: HepG2 ARE-bla reporter, beta-lactamase FRET, 16 h; activation: at 73.3 µM (top of the series) unless noted
# In short: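 ARE-bla HepG2 cells (beta-lactamase reporter under the antioxidant response element), plated 5 hours, then exposed to compounds 16 hours at 37 C. LiveBLAzer B/G FRET substrate added for 2 hours at room temperature; fluorescence intensity read.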
# [6] = qHTS assay for small molecule activators of the heat shock response signaling pathway - cell viability counter screen (AID 743209); conditions: HSE-bla HeLa viability, CellTiter-Glo luminescence, 5 h; activity change, negative = cytotoxicity: at 62.6 µM (top of the series); further: potency means the concentration at half of the fitted maximal effect; nearly all actives have a fitted effect of over 50% in size
# In short: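 First, HSE-bla HeLa cells were seeded at 1500 cells/well and kept overnight at 37 C. Next, compounds were pinned in and incubated 5 h. After the FRET substrate step, CellTiter-Glo was added and luminescence read 30 min later.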
# [7] = qHTS assay to identify small molecule antagonists of the peroxisome proliferator-activated receptor delta (PPARd) signaling pathway - cell viability counter screen (AID 743213); conditions: PPARd-bla HEK293H viability, CellTiter-Glo luminescence, 17 h; viability change, negative = cytotoxic: at 62 µM (top of the series) unless noted; further: potency means the concentration at half of the fitted maximal effect; nearly all actives have a fitted effect of over 50% in size
# In short: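 PPARd-bla HEK293H cells were treated with compounds plus agonist L165041 (300 nM final) for 17 h at 37 C. Viability was then read in the same wells by CellTiter-Glo luminescence after 30 min at room temperature.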
# [8] = molecular target: Peroxisome proliferator-activated receptor delta (Homo sapiens) (UniProt Q03181); test: qHTS assay to identify small molecule antagonists of the peroxisome proliferator-activated receptor delta (PPARd) signaling pathway (AID 743215; active means well fitted inhibition curve with a large enough effect in the signal ratio in the repeat runs, not every such curve was filed as active; inconclusive means weak or mixed curves, or effect the other way; inactive means no such curve, though single readings can be large or run the other way; the % refers to the signal ratio;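 further: cells stimulated with agonist L165041 at 300 nM final during compound exposure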; further: potency means the concentration at half of the fitted maximal effect; on ratio activity, negative = inhibition: on the % scale 0 is the no-effect control and ±100 the full control effect); conditions: HEK293H PPARd-UAS-bla, beta-lactamase FRET ratio, antagonist, 17 h
# In short: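 Inhibition of L165041-driven (300 nM final) PPARd signaling is scored in HEK293H UAS-bla cells. Exposure lasts 17 h at 37 C; beta-lactamase activity is then read by FRET substrate fluorescence after 2 h at room temperature.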
# [9] = molecular target: Bile acid receptor (Homo sapiens) (UniProt Q96RI1); test: qHTS assay to identify small molecule antagonists of the farnesoid-X-receptor (FXR) signaling pathway (AID 743217; active means well fitted inhibition curve with a large enough effect in the signal ratio in the repeat runs, not every such curve was filed as active; inconclusive means weak or mixed curves, or effect the other way; inactive means no such curve, though single readings can be large or run the other way; the % refers to the signal ratio; further: potency means the concentration at half of the fitted maximal effect); conditions: HEK293T FXR-UAS-bla, beta-lactamase ratio, CDCA-stimulated, 16 h; activity change, negative = inhibition: at 62.6 µM (top of the series) unless noted
# In short: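 Antagonist mode against 50 uM (final) chenodeoxycholic acid stimulation in FXR-bla HEK 293T cells, 16 h at 37 °C. Inhibition detected as reduced beta-lactamase activity via LiveBLAzer B/G FRET fluorescence after 2 h at room temperature.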
# [10] = qHTS assay to identify small molecule agonists of the farnesoid-X-receptor (FXR) signaling pathway - cell viability counter screen (AID 743218); conditions: FXR-bla HEK293T viability, CellTiter-Glo luminescence, 16 h; viability change, negative = cytotoxic: at 62.6 µM (top of the series) unless noted; further: potency means the concentration at half of the fitted maximal effect; nearly all actives have a fitted effect of over 45% in size
# In short: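 Cytotoxicity counter-screen run in parallel, same wells: FXR-UAS-bla HEK 293T cells dosed 16 h at 37 C, viability read by CellTiter-Glo luminescence after 30 min at room temperature.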
# [11] = molecular target: Bile acid receptor (Homo sapiens) (UniProt Q96RI1); test: qHTS assay to identify small molecule agonists of the farnesoid-X-receptor (FXR) signaling pathway (AID 743220; active means well fitted activation curve with a large enough effect in the signal ratio in the repeat runs, not every such curve was filed as active; inconclusive means weak or mixed curves, or effect the other way; the % refers to the signal ratio; further: on the % scale 0 is the no-effect control and ±100 the full control effect); conditions: HEK293T FXR-UAS-bla, beta-lactamase FRET ratio, 16 h; activation: at 62.6 µM (top of the series) unless noted
# In short: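 Beta-lactamase reporter under UAS control in GeneBLAzer FXR HEK 293T cells (5000/well) measured with LiveBLAzer FRET substrate after 2 h at room temperature. Compound exposure lasted 16 h at 37C.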
# [12] = qHTS assay to identify small molecule antagonists of the farnesoid-X-receptor (FXR) signaling pathway - cell viability counter screen (AID 743221; active means well fitted cell-killing curve with a large enough effect in the repeat runs, not every such curve was filed as active; inconclusive means weak or mixed curves, or effect the other way; inactive means no such curve, though single readings can be large or run the other way; further: potency means the concentration at half of the fitted maximal effect; nearly all actives have a fitted effect of over 50% in size); conditions: FXR-bla HEK293T viability, CellTiter-Glo luminescence, 16 h; activity change, negative = cytotoxicity: at 62.6 µM (top of the series)
# In short: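 Multiplexed counter screen: viability of FXR-bla HEK 293T cells under agonist stimulation by chenodeoxycholic acid (50 uM, final) and test compound for 16 h at 37 C, measured by CellTiter-Glo luminescence in the reporter wells.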
# [13] = molecular target: Vitamin D3 receptor (Homo sapiens) (UniProt P11473); test: qHTS assay to identify small molecule antagonists of the vitamin D receptor (VDR) signaling pathway (AID 743223; active means well fitted inhibition curve with a large enough effect in the signal ratio in the repeat runs, not every such curve was filed as active; inconclusive means weak or mixed curves, or effect the other way; inactive means no such curve, though single readings can be large or run the other way; the % refers to the signal ratio; further: potency means the concentration at half of the fitted maximal effect; on activity change, negative = inhibition: on the % scale 0 is the no-effect control and ±100 the full control effect); conditions: VDR-UAS-bla HEK293T, beta-lactamase FRET ratio, 16 h; activity change, negative = inhibition: at 61 µM (top of the series) unless noted
# In short: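 Cells carrying a VDR-driven beta-lactamase reporter (VDR-bla) were co-treated with compound and 3 nM final 1alpha,25-dihydroxyvitamin D3 for 16 h at 37C; reporter activity was measured as FRET substrate fluorescence after 2 h at room temperature.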
# [14] = molecular target: Aryl hydrocarbon receptor (Homo sapiens) (UniProt P35869); test: qHTS assay to identify small molecule that activate the aryl hydrocarbon receptor (AhR) signaling pathway (AID 743085); further: potency means the concentration at half of the fitted maximal effect; nearly all actives have a fitted effect of over 15% in size
# In short: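 Compounds were tested in HepG2 hepatocellular carcinoma cells harbouring a stably integrated luciferase gene under control of 20 DREs. Increased reporter signal after 24 h treatment at 37C was taken as AhR activation.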
# [15] = qHTS assay for small molecule activators of the heat shock response signaling pathway (AID 743210; active means well fitted activation curve with a large enough effect in the signal ratio in the repeat runs, with a control signal flat, not every such curve was filed as active; inconclusive means weak or mixed curves; the % refers to the signal ratio; further: potency means the concentration at half of the fitted maximal effect); conditions: HeLa HSE-bla reporter, beta-lactamase ratio, 5 h; activation: at 62.6 µM (top of the series)
# In short: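 HSE-bla HeLa cells (beta-lactamase reporter under heat shock response elements), plated overnight, then exposed to compounds 5 h at 37 C; LiveBLAzer B/G FRET substrate added, 2.5 h at room temperature, fluorescence intensity read.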
# [16] = qHTS assay to identify small molecule agonists of the peroxisome proliferator-activated receptor delta (PPARd) signaling pathway - cell viability counter screen (AID 743211); conditions: PPARd-bla HEK293H viability, CellTiter-Glo luminescence, 17 h; activity change, negative = cytotoxicity: at 62.6 µM (top of the series); further: potency means the concentration at half of the fitted maximal effect; nearly all actives have a fitted effect of over 55% in size
# In short: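 Counter screen for cytotoxicity run in parallel with the PPARd reporter screen. Beta-lactamase reporter HEK293H cells exposed to compounds 17 h; ATP-based CellTiter-Glo luminescence quantified viability.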
# [17] = molecular target: Vitamin D3 receptor (Homo sapiens) (UniProt P11473); test: qHTS assay to identify small molecule agonists of the vitamin D receptor (VDR) signaling pathway (AID 743222; calls by dose curve; further: potency means the concentration at half of the fitted maximal effect); conditions: HEK293T VDR-UAS-bla, beta-lactamase FRET ratio, 16 h
# In short: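 Quantitative HTS agonist-mode screen: compounds in DMSO were pin-transferred onto VDR-bla cells and incubated 16 h at 37C, 5% CO2. Reporter activity was detected with LiveBLAzer B/G FRET substrate after 2 h at room temperature.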
# [18] = molecular target: Peroxisome proliferator-activated receptor delta (Homo sapiens) (UniProt Q03181); test: qHTS assay to identify small molecule agonists of the peroxisome proliferator-activated receptor delta (PPARd) signaling pathway (AID 743212; calls by dose curve; further: potency means the concentration at half of the fitted maximal effect); conditions: HEK293H PPARd-UAS-bla, beta-lactamase FRET ratio, 17 h; activation: at 62.6 µM (top of the series) unless noted
# In short: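 GeneBLAzer UAS-bla HEK293H cells carrying a PPARδ construct were exposed to compounds at 37 °C. Beta-lactamase activity was read by FRET fluorescence after 2 h at room temperature with LiveBLAzer B/G substrate.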
# [19] = ratio activity, negative = inhibition: at 62 µM (top of the series) unless noted
# [20] = activation: at 63.5 µM (top of the series) unless noted
# Tags describe the fitted curve by direction and shape or compound fluorescence and quenching.
# Sequence of UniProt P37231 (P37231 whole entry, looked up): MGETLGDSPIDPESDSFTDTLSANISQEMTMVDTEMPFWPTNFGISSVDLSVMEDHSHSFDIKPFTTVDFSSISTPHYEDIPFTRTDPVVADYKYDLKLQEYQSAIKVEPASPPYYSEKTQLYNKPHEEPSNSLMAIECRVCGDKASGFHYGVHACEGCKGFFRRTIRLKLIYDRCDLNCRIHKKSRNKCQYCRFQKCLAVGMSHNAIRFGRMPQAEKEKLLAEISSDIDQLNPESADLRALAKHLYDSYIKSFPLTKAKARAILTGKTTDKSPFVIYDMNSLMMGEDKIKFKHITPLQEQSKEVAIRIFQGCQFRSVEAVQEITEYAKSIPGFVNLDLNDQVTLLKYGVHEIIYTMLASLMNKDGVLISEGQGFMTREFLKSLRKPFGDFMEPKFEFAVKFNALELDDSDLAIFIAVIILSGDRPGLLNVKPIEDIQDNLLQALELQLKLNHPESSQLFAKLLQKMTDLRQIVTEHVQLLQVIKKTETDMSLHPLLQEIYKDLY
# Sequence of UniProt P35869 (P35869 whole entry, looked up): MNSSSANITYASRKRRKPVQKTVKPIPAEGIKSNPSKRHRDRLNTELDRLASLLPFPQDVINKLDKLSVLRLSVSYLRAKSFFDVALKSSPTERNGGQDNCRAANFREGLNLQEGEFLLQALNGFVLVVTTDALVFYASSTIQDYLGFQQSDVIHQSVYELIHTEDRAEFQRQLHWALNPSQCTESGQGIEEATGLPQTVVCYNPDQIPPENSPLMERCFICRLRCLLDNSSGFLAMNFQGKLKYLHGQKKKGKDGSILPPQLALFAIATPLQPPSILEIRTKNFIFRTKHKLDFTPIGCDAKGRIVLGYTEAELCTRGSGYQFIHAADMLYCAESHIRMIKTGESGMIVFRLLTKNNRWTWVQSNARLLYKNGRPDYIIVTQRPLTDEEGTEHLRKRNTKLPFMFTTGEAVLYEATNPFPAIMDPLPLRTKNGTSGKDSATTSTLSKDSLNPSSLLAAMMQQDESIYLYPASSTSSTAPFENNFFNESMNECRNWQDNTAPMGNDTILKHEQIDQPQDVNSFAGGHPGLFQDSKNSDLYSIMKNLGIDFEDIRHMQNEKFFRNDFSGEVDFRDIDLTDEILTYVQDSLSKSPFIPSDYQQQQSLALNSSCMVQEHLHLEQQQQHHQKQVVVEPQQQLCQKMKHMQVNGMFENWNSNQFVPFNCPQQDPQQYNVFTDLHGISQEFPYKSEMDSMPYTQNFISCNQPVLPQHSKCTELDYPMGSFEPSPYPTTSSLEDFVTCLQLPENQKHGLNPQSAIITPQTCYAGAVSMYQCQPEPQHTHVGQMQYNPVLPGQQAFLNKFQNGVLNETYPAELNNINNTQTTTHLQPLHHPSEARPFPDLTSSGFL
# Sequence of UniProt Q96RI1 (Q96RI1 whole entry, looked up): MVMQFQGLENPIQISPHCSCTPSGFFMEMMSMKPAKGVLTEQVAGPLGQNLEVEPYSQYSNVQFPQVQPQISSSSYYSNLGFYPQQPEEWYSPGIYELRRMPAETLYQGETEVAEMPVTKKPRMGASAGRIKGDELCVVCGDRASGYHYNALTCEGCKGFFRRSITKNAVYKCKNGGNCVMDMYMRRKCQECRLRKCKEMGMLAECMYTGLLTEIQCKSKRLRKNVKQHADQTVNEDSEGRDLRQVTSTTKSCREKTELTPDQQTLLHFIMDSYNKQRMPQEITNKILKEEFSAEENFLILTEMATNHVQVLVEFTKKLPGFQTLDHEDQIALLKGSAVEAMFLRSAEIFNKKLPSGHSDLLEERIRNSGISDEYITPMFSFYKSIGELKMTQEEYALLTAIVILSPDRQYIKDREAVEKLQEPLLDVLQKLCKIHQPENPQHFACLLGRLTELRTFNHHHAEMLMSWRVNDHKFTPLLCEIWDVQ
# Sequence of UniProt P11473 (P11473 whole entry, looked up): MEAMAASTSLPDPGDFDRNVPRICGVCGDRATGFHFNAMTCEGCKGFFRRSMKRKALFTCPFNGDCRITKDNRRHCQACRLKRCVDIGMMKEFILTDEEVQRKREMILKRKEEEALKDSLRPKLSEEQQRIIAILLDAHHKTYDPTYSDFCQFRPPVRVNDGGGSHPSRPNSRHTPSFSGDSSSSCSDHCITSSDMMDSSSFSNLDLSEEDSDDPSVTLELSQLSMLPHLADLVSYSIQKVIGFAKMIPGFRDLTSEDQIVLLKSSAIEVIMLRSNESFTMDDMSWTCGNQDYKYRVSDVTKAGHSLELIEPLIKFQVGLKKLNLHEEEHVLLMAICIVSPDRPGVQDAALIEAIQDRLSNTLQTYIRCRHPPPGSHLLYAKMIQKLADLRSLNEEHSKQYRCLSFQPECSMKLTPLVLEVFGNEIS
# Sequence of UniProt Q03181 (Q03181 whole entry, looked up): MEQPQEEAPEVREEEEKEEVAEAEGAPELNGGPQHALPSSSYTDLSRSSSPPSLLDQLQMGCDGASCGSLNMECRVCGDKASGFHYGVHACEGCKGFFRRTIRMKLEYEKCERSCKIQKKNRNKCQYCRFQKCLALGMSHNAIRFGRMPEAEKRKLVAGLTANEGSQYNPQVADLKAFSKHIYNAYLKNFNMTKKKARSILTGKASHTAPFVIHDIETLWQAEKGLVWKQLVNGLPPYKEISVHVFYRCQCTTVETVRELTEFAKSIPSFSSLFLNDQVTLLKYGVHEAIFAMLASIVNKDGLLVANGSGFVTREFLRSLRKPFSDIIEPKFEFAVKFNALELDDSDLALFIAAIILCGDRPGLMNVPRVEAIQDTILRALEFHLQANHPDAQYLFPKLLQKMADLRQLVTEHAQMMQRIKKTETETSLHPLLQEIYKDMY
compound,measurement,setting,value
CCCCCCCCCCCCOCCOCCOCCOCCOCCOCCOCCOCCOCCO,Potency,[1],"inconclusive: 7.5 µM [falling, full curve]"
same,activation,[2],inconclusive: -14.3%
same,Potency,[3],inconclusive: 33.5 µM [inhibitor]
same,Potency,[4],"inconclusive: 23.7 µM [cytotoxic, partial curve]"
same,Potency,[5],"inconclusive: 18.8 µM [falling, partial curve]"
same,Potency,[6],active: 29.8 µM
same,Potency,[7],"inconclusive: 26.6 µM [cytotoxic, partial curve, poor fit]"
same,"ratio activity, negative = inhibition",[8]; [19],inconclusive: -50.3%
same,Potency,[9],inconclusive: 33.5 µM [inhibitor]
same,Potency,[10],"inconclusive: 33.5 µM [cytotoxic, single point]"
same,activation,[11],inconclusive: 9.04%
same,Potency,[12],active: 26.6 µM
same,"activity change, negative = inhibition",[13],inconclusive: -36.9%
O=C1OC2(c3ccccc31)c1cc(I)c(O)c(I)c1Oc1c2cc(I)c(O)c1I,Potency,[14],active: 23.7 µM
same,Potency,[5],"inconclusive: 68.7 µM [rising, single point]"
same,activation,[5],inconclusive: -15.7% and inconclusive: 0.843%
same,Potency,[15],inconclusive: 58.4 µM and inconclusive: 26.5 µM
same,Potency,[16],"inconclusive: 33.4 µM [cytotoxic, single point]"
same,Potency,[7],active: 33.4 µM
same,"ratio activity, negative = inhibition",[8]; at 62 µM (top of the series),inactive: -8.25% and inactive: -21.5%
same,Potency,[8]; [19],"inconclusive: 26.5 µM [rising, partial curve, poor fit]"
same,"ratio activity, negative = inhibition",[8]; [19],inconclusive: -32.4%
same,activation,[17]; [20],inconclusive: -33.6% and inconclusive: -25.4%
CCCCC/C=C\C/C=C\CCCCCCCC(=O)NC(C)c1ccccc1 (configuration not stated),Potency,[14],"inconclusive: 11.9 µM [activator, partial curve, poor fit]"
same,Potency,[3],inconclusive: 33.5 µM
same,Potency,[5],active: 29.8 µM
same,Potency,[15],"inconclusive: 16.8 µM [falling, partial curve, poor fit]"
same,Potency,[16],"inconclusive: 29.8 µM [cytotoxic, partial curve, poor fit]"
same,activation,[18],inconclusive: -13.2%
same,Potency,[7],"inconclusive: 15 µM [cytotoxic, partial curve]"
COc1cccc2c1C(=O)c1c(O)c3c(c(O)c1C2=O)C[C@@](O)(C(C)=O)C[C@@H]3O[C@H]1C[C@H](N)[C@H](O)[C@H](C)O1,Potency,[14],"inconclusive: 15 µM [activator, partial curve, poor fit]"
same,Potency,[4],active: 34.9 µM and active: 33.5 µM
same,Potency,[6],"inconclusive: 696 nM [cytotoxic, full curve] and inconclusive: 1.19 µM [cytotoxic, full curve, poor fit]"
same,Potency,[16],active: 24.7 µM and active: 33.5 µM
same,Potency,[7],"active: 43.9 µM and inconclusive: 33.5 µM [cytotoxic, single point]"
same,Potency,[10],active: 55.3 µM and active: 2.4 nM
same,activation,[17]; at 63.5 µM (top of the series),inconclusive: -5.42%
same,activation,[17]; at 81.1 µM (top of the series),inconclusive: 7.34%
same,Potency,[13],"inconclusive: 876 nM [rising, full curve] and inconclusive: 1.9 µM [rising, full curve]"
COCC(=O)O[C@]1(CCN(C)CCCc2nc3ccccc3[nH]2)CCc2cc(F)ccc2[C@@H]1C(C)C,Potency,[1],active: 9.44 µM
same,Potency,[2],inconclusive: 26.8 µM [single point]
same,Potency,[3],"inconclusive: 18.8 µM [rising, partial curve, poor fit]"
same,Potency,[4],active: 29.8 µM
same,Potency,[5],inconclusive: 33.5 µM
same,Potency,[18],inconclusive: 13.3 µM
same,Potency,[7],active: 16.8 µM
same,Potency,[8]; [19],inconclusive: 33.5 µM
same,Potency,[9],inconclusive: 33.5 µM
same,Potency,[10],active: 11.9 µM
same,Potency,[12],active: 23.7 µM
same,Potency,[17]; [20],inconclusive: 33.5 µM
same,Potency,[13],inconclusive: 26.8 µM
